SMILES strings stand for the structures. Among all 48,000 compounds or so, about 120 (0.25%) were called active. Not shown: some 4% with an inconclusive outcome. Calls follow the shape of the dose curve; as a rule, active = well fitted activation curve with a large enough effect; inconclusive = small, poorly fitted or top-dose-only effect, or another doubt; inactive = no such curve, though single readings can be large or run the other way. The list shows a part of the results.

The nature of this experiment: Primary qHTS for Identification of Small Molecule Activators of Huntingtin-Antisense Promoter Activity. Also: nearly all actives have a fitted effect of over 55% in size. The conditions noted are these: HEK293 HTT-AS promoter firefly luciferase reporter (activity 0% = vehicle and -100% = no light), 24 h; series mostly up to 57.5 µM; activity change, positive = activation: at the top concentration. In short, it runs like this:
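Firefly luciferase signal from promoter-reporter HEK293 cells was scaled between vehicle (0%) and zero RLU (-100%). Compounds were tested at final concentrations of up to 57.5 uM over 24 h at 37 degrees C. PTC124 at 50 uM final served as control inhibitor.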
In general terms: In qHTS, concentration-response curves come from the screen itself.
For `CCOc1cc(C(=O)Nc2ccc3nc(Nc4cccc(Cl)c4)cc(C)c3c2)cc(OCC)c1OCC`, the “activity change, positive = activation” value is inactive: -2.57%. Take `Cc1nnc(SCc2cc(=O)n3cccc(C)c3n2)s1`: the “activity change, positive = activation” value is inactive: 6.54%. Then `Cc1nn2c(C)c(C(=O)N3CCN(c4ccccc4F)CC3)cnc2c1-c1ccc(F)cc1`, with inactive: 1.53%; and `Cc1cccc(CCNC(=O)C2CCC(CNS(=O)(=O)c3ccccc3)CC2)c1` (stereo unspecified), with inactive: -0.788%. `COc1cccc(-c2nc(CS(=O)(=O)CC(=O)NCCc3ccc(OC)cc3OC)c(C)o2)c1`: the “activity change, positive = activation” value is inactive: -20.6%. Next, `CCCC(CCC)C(=O)Nc1cccc(-c2nc3cccnc3s2)c1C`: inactive: -17.4%. Then `N#Cc1ccccc1Cn1c(=O)n(CCCC(=O)NCc2ccccc2Cl)c(=O)c2ccccc21`, with inactive: -8.31%; and `O=C(Nc1ccc(F)c(Cl)c1)C1CCN(C(=O)c2ccc(F)cc2)CC1`, with inactive: 3.6%. Then `CNS(=O)(=O)Cc1ccc2[nH]cc(CCN(C)C)c2c1`, with “inactive”; and `CCOC(=O)c1ccc(NC(=O)c2cnn(-c3ccc(C)cc3C)c2C2CCN(C(=O)OC(C)(C)C)CC2)cc1`, with inactive: 7.01%. `COc1ccc(NC(=O)C2CCN(S(=O)(=O)c3ccc4[nH]c(=O)ccc4c3)CC2)cc1Cl`: the “activity change, positive = activation” value was inactive: -17.3%. Next, `COc1cc(OC)c(NC(=O)C(c2ccccc2)N2Cc3ccccc3C2=O)cc1Cl` (stereo unspecified): inactive: -2.08%; `O=C(CCCl)NCc1ccccc1`: inactive: -8.71%. For the molecule `CCOc1ccc(N2CC(c3nc4ccccc4n3CCCOc3ccccc3OC)CC2=O)cc1` (stereo unspecified), the “activity change, positive = activation” value is inactive: 0.0368%.

For `CCc1nnc(SCc2cccc(F)c2)c2cc3sc(C)cc3n12`, the “activity change, positive = activation” value is inactive: -26.1%. For the molecule `CCS(=O)(=O)N1CC(=O)N(c2ccc(Cl)cc2C)C(C)(C(=O)NC2CCCCCC2)C1` (stereo unspecified), the “activity change, positive = activation” value is inactive: -34.2%.

As to `CCOC(=O)c1scc(-c2ccccc2)c1S(=O)(=O)Nc1ccc(N(C)C)cc1`, the “activity change, positive = activation” value is inactive: -25.8%. Next, `CC(C)CN(CCCNC(=O)c1cc(-c2ccc(Br)s2)nc2ccccc12)CC(C)C`: inactive: -15.8%; `O=C(Nc1nonc1-c1ccc(Cl)cc1)c1ccccc1F`: inactive: -42.1%; `COc1ccc(CCNC(=O)C2(c3cccs3)CCOCC2)cc1`: inactive: -21%. On to `COc1ccc(N2CC(NC(=O)/C=C\c3ccc4c(c3)OCO4)CC2=O)cc1` (stereo unspecified), for which the “activity change, positive = activation” value is inactive: -44.4%. Regarding `COc1ccc(OC)c(CNC(=O)c2ccc3nc(C(C)C)oc3c2)c1`, the “activity change, positive = activation” value was inactive: 1.02%.

For `COc1cc(OC)c(NC(=O)c2c(N3CCCC3=O)c3cc(C)ccc3n2C)cc1Cl`, the “activity change, positive = activation” value is inactive: -8.32%. Then `CCCc1ccc(S(=O)(=O)N2CCC(c3nnc(-c4cccc(C)c4)o3)CC2)cc1`, with inactive: -67.5%.

`COc1ccc(Cl)cc1C(=O)Nc1ccc2nc(Nc3cccc(Cl)c3)cc(C)c2c1`: the “activity change, positive = activation” value was inactive: -9.87%. `CCOc1ccccc1NC(=O)Cn1ncc2c([nH]c3ccccc32)c1=O`: the “activity change, positive = activation” value is inactive: -13.8%.

With `Cc1ccccc1OCC(=O)Nc1nnc(S(=O)(=O)N2CCCC2)s1`, the “activity change, positive = activation” value was inactive: -15.1%. In the case of `COc1ccc(C)cc1NC(=O)c1c2c(nc3ccccc13)C(=O)N(C1CCCCC1)C2`, the “activity change, positive = activation” value is inactive: -44.8%. Next, `Cc1ccc(-c2cc3ncc(C(=O)c4cc(Cl)c(C)cc4O)cn3n2)cc1`: inactive: -6.71%.

With `CCOc1ccc(Br)cc1C1C(C(=O)OC)=C(C)NC2=C1C(=O)c1ccccc12` (stereo unspecified), the “activity change, positive = activation” value is inactive: 0.839%. Next, `CCN(C(=O)CSc1ncc2c(n1)-c1cc(Cl)ccc1N(Cc1ccccc1)S2(=O)=O)c1cccc(C)c1`: inactive: -14.5%; `Cc1ccc(Cl)cc1NC(=O)C(Cc1ccccc1)NS(=O)(=O)c1cccc2nsnc12` (stereo unspecified): inactive: -11.2%; `CCc1c(C)sc2c1CCN(C(=O)Nc1ccccc1C(=O)OC)C2c1ccc(OC)cc1` (stereo unspecified): inactive: 10.6%. Consider `COc1ccc(OC)c(C2Nc3c(C)cc(C)cc3-c3cc(C)nn32)c1` (stereo unspecified), for which the “activity change, positive = activation” value is inactive: 15.6%. Next, `Cc1ccc(NS(=O)(=O)c2ccc3c(c2)CC(=O)N3)cc1Cl`: inactive: -22.4%; `O=C(NCc1ccc(Cl)cc1)C1=Cc2cc(Br)ccc2OC1`: inactive: -16.6%; `CCOc1ccc(NC(=O)CN2C(=O)C(c3ccc(Cl)cc3)=NC2(C)C)cc1`: inactive: -22.4%. For the molecule `CCC(=O)N1CCc2cc(Br)cc(S(=O)(=O)N3CCCC(C(=O)Nc4cc(C)ccc4OC)C3)c21` (stereo unspecified), the “activity change, positive = activation” value is inactive: -6.75%. Turning to `CCn1c(=O)cc(OCC(=O)N(C)c2ccc(OC)cc2)c2ccccc21`, the “activity change, positive = activation” value was inactive: -2.35%.

In the case of `CCC(CC)(CC(=O)Nc1cccc(/C=C/c2nc(C3CCC3)cs2)c1)C(=O)O`, the “activity change, positive = activation” value was inactive: 19.8%. For `Cc1ccc(Cl)cc1N1CCN(C(=O)c2cc3ccc4cccnc4c3[nH]2)CC1`, the “activity change, positive = activation” value is inactive: 13.4%. On to `NC(=O)c1ncn([C@@H]2O[C@H](CO)[C@@H](O)[C@H]2O)n1`, for which the “activity change, positive = activation” value is inactive: -25.5%. As to `CCc1cccc(NC(=O)Cn2c(=O)n(CCC(=O)NCc3ccccc3Cl)c(=O)c3sccc32)c1`, the “activity change, positive = activation” value is inactive: -1.07%. Next, `CCOC(=O)c1cc(C)n(CC2CCC(C(=O)Nc3cccc(Cl)c3)CC2)c1C` (stereo unspecified): inactive: -16.6%. Next, `CCN(CC)c1ccc(NC(=O)CN2CCN(c3ccccc3OC)CC2)cc1`: inactive: -14.6%; `Oc1c(C(c2ccccc2)N2CCOCC2)sc2nc(-c3ccco3)nn12` (stereo unspecified): inactive: 10.2%; `Cc1cc(C)cc(NC(=O)c2sc3nc4n(c(=O)c3c2C)N=C(c2ccccc2)CS4)c1`: inactive: 5.84%.

With `Cc1cccc(OC(C)C(=O)Nc2nonc2-c2ccc(Br)cc2)c1C` (stereo unspecified), the “activity change, positive = activation” value is inactive: -34.2%.

Consider `COc1ccc(C2=C(C)C(=O)N(Cc3ccc(C(=O)NC(C)c4ccccc4)cc3)S2(=O)=O)cc1` (stereo unspecified), for which the “activity change, positive = activation” value was inactive: -8.1%. With `CCOC(=O)[C@H](CCc1ccccc1)N[C@@H](C)C(=O)N1[C@H](C(=O)O)C[C@@H]2CCC[C@@H]21`, the “activity change, positive = activation” value was inactive: -6.37%.

With `CCOc1ccc(N2CC(c3nc4ccccc4n3CCCCOc3ccc(OC)cc3)CC2=O)cc1` (stereo unspecified), the “activity change, positive = activation” value was inactive: -35.1%. Consider `Cc1cc(=O)n2nc(N3CCC(C(=O)Nc4c(C)cccc4C)CC3)sc2n1`, for which the “activity change, positive = activation” value was inactive: -1.93%.

Take `CC1CCN(S(=O)(=O)c2cc3c4c(c2)C(C)C(=O)N4CCC3)CC1` (stereo unspecified): the “activity change, positive = activation” value was inactive: -4.83%.

For `Cc1cccc(N2C(=O)CSC23C(=O)N(CC(=O)Nc2cccc(Cl)c2)c2ccccc23)c1` (stereo unspecified), the “activity change, positive = activation” value is inactive: -31.7%. Then `O=C(NC1CCCCCC1)C1c2ccccc2C(=O)N1Cc1ccc(F)cc1` (stereo unspecified), with inactive: -11.6%; and `COc1ccc(CNC(=O)CN2C(=O)CSc3ccc(S(=O)(=O)N(C)C)cc32)cc1`, with inactive: 7.98%; and `COc1ccc(-c2onc(C)c2C)cc1S(=O)(=O)Nc1cccc(C#N)c1`, with inactive: -37.1%. Take `CN(C)CCN(Cc1ccco1)C(=O)c1cc2c(s1)-c1ccccc1OC2`: the “activity change, positive = activation” value was inactive: -28.1%. Next, `O=C(NCCc1ccc(Cl)cc1)c1ccc2c(c1)nc1n2CCOC1`: inactive: 17.5%.

On to `CCOC(=O)N1CCc2c(sc3c2c(=O)n(-c2ccc(F)cc2)c(=O)n3CC(=O)c2ccc(Cl)cc2)C1`, for which the “activity change, positive = activation” value is inactive: -13.7%. As to `Cc1cccc(C(=O)NC2(C(F)(F)F)N=C(c3ccccc3)N(C3CCCCC3)C2=O)c1` (stereo unspecified), the “activity change, positive = activation” value is inactive: -2.28%.

The values above are taken from PubChem BioAssay AID1508624 (National Center for Advancing Translational Sciences (NCATS), 2021).
